# From the supplement of paper PMC8512760
# Some of the results follow. Repeats are few or missing, and single values can be far off.
# Test system: SUM-149
# Assay: cell viability relative to vehicle (% of vehicle); basal-like triple-negative breast cancer lines; higher = less cytotoxic
# Details: 10 µM; 72 h
# 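Further: stably firefly luciferase-GFP labeled cells in 96-well plates, viability read as luciferase photon flux after d-luciferin addition, treated wells normalized to vehicle wells, single-dose high-throughput screen.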
row,Structure (SMILES),cell viability
1,COc1cc(Nc2c(C#N)cnc3cc(OCCCN4CCN(C)CC4)c(OC)cc23)c(Cl)cc1Cl [Bosutinib (SKI-606)],56.9
2,COc1c(C)c2c(c(O)c1CC=C(C)CCC(=O)O)C(=O)OC2 [Mycophenolic acid],59.6
3,O=C1OC(C(O)CO)C(O)=C1O (configuration not stated) [Vitamin C],105
4,COc1cc(C(C)=O)ccc1OCCCN1CCC(c2noc3cc(F)ccc23)CC1 [Iloperidone],125
5,O=C(NC1CCN(CCCCC2(C(=O)NCC(F)(F)F)c3ccccc3-c3ccccc32)CC1)c1ccccc1-c1ccc(C(F)(F)F)cc1 [Lomitapide],26.2
6,NCCc1cnc[nH]1.O=P(O)(O)O.O=P(O)(O)O [Histamine Phosphate],93.8
7,Nc1ccc(C(=O)[O-])c(O)c1.O.O.[Na+] [Sodium 4-Aminosalicylate],121
8,CC(COc1ccccc1)N(CCCl)Cc1ccccc1.Cl (configuration not stated) [Phenoxybenzamine HCl],114
9,CC1(C)Cc2c(-c3ccccc3)c(-c3ccc(Cl)cc3)c(CC(=O)O)n2C1 [Licofelone],115
10,CN(N=O)C(=O)NC1C(O)OC(CO)C(O)C1O (configuration not stated) [Streptozocin],100
11,CCN1CCN(C(=O)NC(C(=O)NC2C(=O)N3C(C(=O)O)=C(CSc4nnnn4C)CSC23)c2ccc(O)cc2)C(=O)C1=O (configuration not stated) [Cefoperazone],109
12,O=c1c(-c2ccc(O)cc2)coc2cc(O)ccc12 [Daidzein],171
